{"sequences": {"note": "By UniProt entry, the sequences of proteins in these tests, tags left out. Residues count along the entry.", "UniProt P26660, residues 814-1030": "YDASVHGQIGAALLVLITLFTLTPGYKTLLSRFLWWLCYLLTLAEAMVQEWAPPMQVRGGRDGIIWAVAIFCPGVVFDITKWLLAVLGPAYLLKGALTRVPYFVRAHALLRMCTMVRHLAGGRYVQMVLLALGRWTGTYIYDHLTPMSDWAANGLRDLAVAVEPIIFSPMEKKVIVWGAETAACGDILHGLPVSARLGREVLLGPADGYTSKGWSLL", "UniProt O14964": "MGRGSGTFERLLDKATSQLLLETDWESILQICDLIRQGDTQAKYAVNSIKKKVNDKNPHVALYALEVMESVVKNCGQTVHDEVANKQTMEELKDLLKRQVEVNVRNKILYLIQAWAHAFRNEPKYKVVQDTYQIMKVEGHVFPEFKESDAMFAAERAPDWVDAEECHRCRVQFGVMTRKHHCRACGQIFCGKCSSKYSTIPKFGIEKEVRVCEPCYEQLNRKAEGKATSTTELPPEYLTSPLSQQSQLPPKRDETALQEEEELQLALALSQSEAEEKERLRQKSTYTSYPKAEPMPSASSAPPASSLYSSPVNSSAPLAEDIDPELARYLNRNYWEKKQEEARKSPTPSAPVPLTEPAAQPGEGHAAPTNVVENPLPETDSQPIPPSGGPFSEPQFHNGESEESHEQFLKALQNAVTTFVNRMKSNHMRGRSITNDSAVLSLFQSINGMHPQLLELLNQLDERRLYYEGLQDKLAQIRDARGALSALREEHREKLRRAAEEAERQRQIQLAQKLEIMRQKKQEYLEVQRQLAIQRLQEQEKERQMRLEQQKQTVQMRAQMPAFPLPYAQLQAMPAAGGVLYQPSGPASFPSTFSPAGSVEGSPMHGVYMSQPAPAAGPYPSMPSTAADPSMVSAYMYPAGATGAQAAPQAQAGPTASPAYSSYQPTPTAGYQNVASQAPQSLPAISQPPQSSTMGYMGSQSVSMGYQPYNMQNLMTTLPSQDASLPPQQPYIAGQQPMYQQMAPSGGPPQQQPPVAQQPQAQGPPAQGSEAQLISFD"}, "source": "paper PMC7053169", "molecules": {"B1": {"name": "MARCH10 (endogenous) (enzyme, UniProt Q8NA82 1-808)", "chain": "MLHDARDRQKFFSDVQYLRDMQHKVDSEYQACLRRQEYRRDPNEKKRDQFWGQETSFERSRFSSRSSSKQSSSEEDALTEPRSSIKISAFKCDSKLPAIDQTSVKQKHKSTMTVRKAEKVDPSEPSPADQAPMVLLRKRKPNLRRFTVSPESHSPRASGDRSRQKQQWPAKVPVPRGADQVVQQEGLMCNTKLKRPNQERRNLVPSSQPMTENAPDRAKKGDPSAPSQSELHPALSQAFQGKNSPQVLSEFSGPPLTPTTVGGPRKASFRFRDEDFYSILSLNSRRESDDTEEETQSEECLWVGVRSPCSPSHHKRSRFGGTSTPQAKNKNFEENAENCRGHSSRRSEPSHGSLRISNAMEPATERPSAGQRLSQDPGLPDRESATEKDRGGSENAKKSPLSWDTKSEPRQEVGVNAENVWSDCISVEHRPGTHDSEGYWKDYLNSSQNSLDYFISGRPISPRSSVNSSYNPPASFMHSALRDDIPVDLSMSSTSVHSSDSEGNSGFHVCQPLSPIRNRTPFASAENHNYFPVNSAHEFAVREAEDTTLTSQPQGAPLYTDLLLNPQGNLSLVDSSSSSPSRMNSEGHLHVSGSLQENTPFTFFAVSHFPNQNDNGSRMAASGFTDEKETSKIKADPEKLKKLQESLLEEDSEEEGDLCRICQIAGGSPSNPLLEPCGCVGSLQFVHQECLKKWLKVKITSGADLGAVKTCEMCKQGLLVDLGDFNMIEFYQKHQQSQAQNELMNSGLYLVLLLHLYEQRFAELMRLNHNQVERERLSRNYPQPRTEENENSELGDGNEGSISQSQVV"}}, "key": {"[1]": {"target": "GLuc2-NS2 (HCV NS2 protein derived from the J6/JFH genome, fused to a Gaussia luciferase fragment) (hepatitis C virus (J6/JFH)) (UniProt P26660)", "assay": "split reporter; PCA of NS2 with HRS in MARCH8KO and WT cells, pooled from two experiments"}, "[2]": {"target": "T1, FLAG-MARCH8 (human) (UniProt Q5T0T0)", "T1 sequence": "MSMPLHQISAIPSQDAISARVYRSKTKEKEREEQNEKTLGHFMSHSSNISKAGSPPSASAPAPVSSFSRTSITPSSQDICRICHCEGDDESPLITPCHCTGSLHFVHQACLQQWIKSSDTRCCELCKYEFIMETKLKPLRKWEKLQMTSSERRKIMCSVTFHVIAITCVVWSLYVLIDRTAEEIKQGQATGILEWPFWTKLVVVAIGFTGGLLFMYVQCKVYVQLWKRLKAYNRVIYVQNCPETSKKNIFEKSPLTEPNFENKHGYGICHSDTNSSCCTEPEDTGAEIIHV", "assay": "co-IP; IP with anti-FLAG antibody or IgG control from membrane fractions of 293T cells ectopically expressing FLAG-MARCH8 and/or GLuc-NS2; blots for GLuc and FLAG"}, "[3]": {"target": "HCV NS2 (native, from J6/JFH HCV RNA) (hepatitis C virus (J6/JFH)) (UniProt P26660)", "assay": "co-IP; IP with anti-NS2 antibody or IgG control from membrane fractions of Huh7.5.1 cells 72 hr after transfection with HCV RNA; cells treated with 1 mM DSP crosslinker before lysis; blots for MARCH8, MARCH10, NS2"}}, "note": "Results are given in words; binding and its absence hold for the method and conditions named. In cells and extracts the contact can be indirect. Some results given as binding are weak or reduced against the parent protein; the word gives no strength. For part of these data: Sequences can lack the tags named with a protein."}
{"molecule": "HRS (hepatocyte growth factor-regulated tyrosine kinase substrate) (from UniProt O14964 1-777)", "values": [{"measurement": "binding", "setting": "[1]", "result": "binds"}]}
{"molecule": "GLuc2-NS2 (HCV NS2 protein derived from the J6/JFH genome, fused to a Gaussia luciferase fragment) (from UniProt P26660 814-1030)", "values": [{"measurement": "binding", "setting": "[2]", "result": "binds"}]}
{"molecule": "B1", "values": [{"measurement": "binding", "setting": "[3]", "result": "no binding"}]}
